We go through 63 sequences from paper PMC12820563.

The other results are listed elsewhere or left out. The list includes weakly bound sequences.

The target of the assay is T1, MBP-FoxP3dN (UniProt Q99JB6).
T1 sequence: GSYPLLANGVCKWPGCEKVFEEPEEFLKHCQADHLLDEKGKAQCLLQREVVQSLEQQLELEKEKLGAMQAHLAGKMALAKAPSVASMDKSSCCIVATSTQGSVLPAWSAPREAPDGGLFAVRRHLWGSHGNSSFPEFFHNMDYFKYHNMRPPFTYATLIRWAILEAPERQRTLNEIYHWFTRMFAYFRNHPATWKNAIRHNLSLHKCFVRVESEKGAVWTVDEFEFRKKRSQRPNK
Nature of the assay: PD-seq (MBP pull-down with sequencing). Conditions: 20 mM Tris-HCl pH 7.5, 100 mM NaCl, 1.5 mM MgCl2, 0.4 uM protein, 0.1 uM dsDNA library, 30 min, room temperature, amylose pull-down; high values mean tight binding; double strand, one strand shown.
As to “GATGATTGTTCTCCCAGCTGATGAATTGGGTAATTCGAGTAAACAAATTTTCCTAATCTTTCTGTTCAAGCGCCATCTAC”, the binding signal (RPM ratio (pull-down/input)) worked out at 0.698.
The value for “GATGATTGTTCTCCCAGCTGATGAATTCTTATCATCGAGTAAACAAATTTTCCTAATCTTTCTGTTCAAGCGCCATCTAC” was 0.347.
With “GATGATTGTTCTCCCAGCTGATGAATTCGATCCCTCGAGTAAACAAATTTTCCTAATCTTTCTGTTCAAGCGCCATCTAC” the figure was 0.33; with “GATGATTGTTCTCCCAGCTGATGAATTCATACAGTCGAGTAAACAAATTTTCCTAATCTTTCTGTTCAAGCGCCATCTAC”, 0.384; with “GATGATTGTTCTCCCAGCTGATGAATTGAATTTTTCGAGTAAACAAATTTTCCTAATCTTTCTGTTCAAGCGCCATCTAC”, 0.705.
With “GATGATTGTTCTCCCAGCTGATGAATTCTCCGGGTCGAGTAAACAAATTTTCCTAATCTTTCTGTTCAAGCGCCATCTAC” the figure was 0.159.
With “GATGATTGTTCTCCCAGCTGATGAATTATTGATATCGAGTAAACAAATTTTCCTAATCTTTCTGTTCAAGCGCCATCTAC”, the binding signal (RPM ratio (pull-down/input)) worked out at 1.2.
The value for “GATGATTGTTCTCCCAGCTGATGAATTATGGTACTCGAGTAAACAAATTTTCCTAATCTTTCTGTTCAAGCGCCATCTAC” was 0.774.
With “GATGATTGTTCTCCCAGCTGATGAATTGGACCTATCGAGTAAACAAATTTTCCTAATCTTTCTGTTCAAGCGCCATCTAC” the figure was 0.323; with “GATGATTGTTCTCCCAGCTGATGAATTCTGGTTGTCGAGTAAACAAATTTTCCTAATCTTTCTGTTCAAGCGCCATCTAC”, 1.33; with “GATGATTGTTCTCCCAGCTGATGAATTCATGACGTCGAGTAAACAAATTTTCCTAATCTTTCTGTTCAAGCGCCATCTAC”, 0.388.
With “GATGATTGTTCTCCCAGCTGATGAATTGGTCAGGTCGAGTAAACAAATTTTCCTAATCTTTCTGTTCAAGCGCCATCTAC” the figure was 0.286; with “GATGATTGTTCTCCCAGCTGATGAATTTGTCAACTCGAGTAAACAAATTTTCCTAATCTTTCTGTTCAAGCGCCATCTAC”, 1.96.
“GATGATTGTTCTCCCAGCTGATGAATTTCATCGGTCGAGTAAACAAATTTTCCTAATCTTTCTGTTCAAGCGCCATCTAC”: the binding signal (RPM ratio (pull-down/input)) is 0.273.
The value for “GATGATTGTTCTCCCAGCTGATGAATTGGCTACGTCGAGTAAACAAATTTTCCTAATCTTTCTGTTCAAGCGCCATCTAC” was 0.371; that for “GATGATTGTTCTCCCAGCTGATGAATTAGCGCCTTCGAGTAAACAAATTTTCCTAATCTTTCTGTTCAAGCGCCATCTAC” was 3.86; that for “GATGATTGTTCTCCCAGCTGATGAATTACTAATTTCGAGTAAACAAATTTTCCTAATCTTTCTGTTCAAGCGCCATCTAC” was 0.454.
The value for “GATGATTGTTCTCCCAGCTGATGAATTTTCCCTGTCGAGTAAACAAATTTTCCTAATCTTTCTGTTCAAGCGCCATCTAC” was 0.171; that for “GATGATTGTTCTCCCAGCTGATGAATTATCAAACTCGAGTAAACAAATTTTCCTAATCTTTCTGTTCAAGCGCCATCTAC” was 0.363.
With “GATGATTGTTCTCCCAGCTGATGAATTGTATCCATCGAGTAAACAAATTTTCCTAATCTTTCTGTTCAAGCGCCATCTAC” the figure was 1.56.
“GATGATTGTTCTCCCAGCTGATGAATTAGTGAGATCGAGTAAACAAATTTTCCTAATCTTTCTGTTCAAGCGCCATCTAC”: the binding signal (RPM ratio (pull-down/input)) was 0.357.
With “GATGATTGTTCTCCCAGCTGATGAATTGCCAGCGTCGAGTAAACAAATTTTCCTAATCTTTCTGTTCAAGCGCCATCTAC” the figure was 0.672.
With “GATGATTGTTCTCCCAGCTGATGAATTTTATCAGTCGAGTAAACAAATTTTCCTAATCTTTCTGTTCAAGCGCCATCTAC” the figure was 0.461; with “GATGATTGTTCTCCCAGCTGATGAATTTGTTTACTCGAGTAAACAAATTTTCCTAATCTTTCTGTTCAAGCGCCATCTAC”, 6.49; with “GATGATTGTTCTCCCAGCTGATGAATTAACCGAATCGAGTAAACAAATTTTCCTAATCTTTCTGTTCAAGCGCCATCTAC”, 0.21.
With “GATGATTGTTCTCCCAGCTGATGAATTTCCGACCTCGAGTAAACAAATTTTCCTAATCTTTCTGTTCAAGCGCCATCTAC” the figure was 0.249; with “GATGATTGTTCTCCCAGCTGATGAATTCCGCTTCTCGAGTAAACAAATTTTCCTAATCTTTCTGTTCAAGCGCCATCTAC”, 2.47; with “GATGATTGTTCTCCCAGCTGATGAATTCATCCCCTCGAGTAAACAAATTTTCCTAATCTTTCTGTTCAAGCGCCATCTAC”, 0.434.
In the case of “GATGATTGTTCTCCCAGCTGATGAATTGGCCACATCGAGTAAACAAATTTTCCTAATCTTTCTGTTCAAGCGCCATCTAC”, the binding signal (RPM ratio (pull-down/input)) is 0.924.
Regarding “GATGATTGTTCTCCCAGCTGATGAATTTACAAGATCGAGTAAACAAATTTTCCTAATCTTTCTGTTCAAGCGCCATCTAC”, the binding signal (RPM ratio (pull-down/input)) amounted to 0.326.
With “GATGATTGTTCTCCCAGCTGATGAATTCAGTGTGTCGAGTAAACAAATTTTCCTAATCTTTCTGTTCAAGCGCCATCTAC” the figure was 2.18; with “GATGATTGTTCTCCCAGCTGATGAATTGCTCGGTTCGAGTAAACAAATTTTCCTAATCTTTCTGTTCAAGCGCCATCTAC”, 0.438.
Regarding “GATGATTGTTCTCCCAGCTGATGAATTATAGCTATCGAGTAAACAAATTTTCCTAATCTTTCTGTTCAAGCGCCATCTAC”, the binding signal (RPM ratio (pull-down/input)) turned out to be 0.813.
The value for “GATGATTGTTCTCCCAGCTGATGAATTCGCAAGATCGAGTAAACAAATTTTCCTAATCTTTCTGTTCAAGCGCCATCTAC” was 0.339; that for “GATGATTGTTCTCCCAGCTGATGAATTACCGGGATCGAGTAAACAAATTTTCCTAATCTTTCTGTTCAAGCGCCATCTAC” was 0.214; that for “GATGATTGTTCTCCCAGCTGATGAATTCCGATCGTCGAGTAAACAAATTTTCCTAATCTTTCTGTTCAAGCGCCATCTAC” was 0.375.
With “GATGATTGTTCTCCCAGCTGATGAATTTACACTATCGAGTAAACAAATTTTCCTAATCTTTCTGTTCAAGCGCCATCTAC” the figure was 0.996.
For the sequence “GATGATTGTTCTCCCAGCTGATGAATTTCTCTCCTCGAGTAAACAAATTTTCCTAATCTTTCTGTTCAAGCGCCATCTAC”, the binding signal (RPM ratio (pull-down/input)) was 0.213.
With “GATGATTGTTCTCCCAGCTGATGAATTTTGATGTTCGAGTAAACAAATTTTCCTAATCTTTCTGTTCAAGCGCCATCTAC” the figure was 3.91; with “GATGATTGTTCTCCCAGCTGATGAATTCCGTTTCTCGAGTAAACAAATTTTCCTAATCTTTCTGTTCAAGCGCCATCTAC”, 1.2; with “GATGATTGTTCTCCCAGCTGATGAATTAGTCTCGTCGAGTAAACAAATTTTCCTAATCTTTCTGTTCAAGCGCCATCTAC”, 0.55.
The value for “GATGATTGTTCTCCCAGCTGATGAATTGATCTTCTCGAGTAAACAAATTTTCCTAATCTTTCTGTTCAAGCGCCATCTAC” was 0.314; that for “GATGATTGTTCTCCCAGCTGATGAATTAGTGGCCTCGAGTAAACAAATTTTCCTAATCTTTCTGTTCAAGCGCCATCTAC” was 1.26.
The value for “GATGATTGTTCTCCCAGCTGATGAATTAACCAGCTCGAGTAAACAAATTTTCCTAATCTTTCTGTTCAAGCGCCATCTAC” was 0.22; that for “GATGATTGTTCTCCCAGCTGATGAATTCGCGGAATCGAGTAAACAAATTTTCCTAATCTTTCTGTTCAAGCGCCATCTAC” was 0.216; that for “GATGATTGTTCTCCCAGCTGATGAATTATGCTGTTCGAGTAAACAAATTTTCCTAATCTTTCTGTTCAAGCGCCATCTAC” was 3.42.
For the sequence “GATGATTGTTCTCCCAGCTGATGAATTTACCATCTCGAGTAAACAAATTTTCCTAATCTTTCTGTTCAAGCGCCATCTAC”, the binding signal (RPM ratio (pull-down/input)) was 0.738.
With “GATGATTGTTCTCCCAGCTGATGAATTTAAGCGGTCGAGTAAACAAATTTTCCTAATCTTTCTGTTCAAGCGCCATCTAC” the figure was 0.297; with “GATGATTGTTCTCCCAGCTGATGAATTTCGTAGCTCGAGTAAACAAATTTTCCTAATCTTTCTGTTCAAGCGCCATCTAC”, 0.705.
The value for “GATGATTGTTCTCCCAGCTGATGAATTTTCTCGCTCGAGTAAACAAATTTTCCTAATCTTTCTGTTCAAGCGCCATCTAC” was 0.241; that for “GATGATTGTTCTCCCAGCTGATGAATTTTTCGCATCGAGTAAACAAATTTTCCTAATCTTTCTGTTCAAGCGCCATCTAC” was 0.898.
Consider “GATGATTGTTCTCCCAGCTGATGAATTTGCACGTTCGAGTAAACAAATTTTCCTAATCTTTCTGTTCAAGCGCCATCTAC”, for which the binding signal (RPM ratio (pull-down/input)) worked out at 0.786.
With “GATGATTGTTCTCCCAGCTGATGAATTACGAAGATCGAGTAAACAAATTTTCCTAATCTTTCTGTTCAAGCGCCATCTAC” the figure was 0.266; with “GATGATTGTTCTCCCAGCTGATGAATTGAAAACTTCGAGTAAACAAATTTTCCTAATCTTTCTGTTCAAGCGCCATCTAC”, 0.334.
For the sequence “GATGATTGTTCTCCCAGCTGATGAATTTTTTATGTCGAGTAAACAAATTTTCCTAATCTTTCTGTTCAAGCGCCATCTAC”, the binding signal (RPM ratio (pull-down/input)) amounted to 0.31.
Take “GATGATTGTTCTCCCAGCTGATGAATTCTGATATTCGAGTAAACAAATTTTCCTAATCTTTCTGTTCAAGCGCCATCTAC”: the binding signal (RPM ratio (pull-down/input)) was determined as 2.13.
With “GATGATTGTTCTCCCAGCTGATGAATTCTACCCTTCGAGTAAACAAATTTTCCTAATCTTTCTGTTCAAGCGCCATCTAC” the figure was 0.298.
The value for “GATGATTGTTCTCCCAGCTGATGAATTCAACATCTCGAGTAAACAAATTTTCCTAATCTTTCTGTTCAAGCGCCATCTAC” was 0.716.
The value for “GATGATTGTTCTCCCAGCTGATGAATTCCCTGATTCGAGTAAACAAATTTTCCTAATCTTTCTGTTCAAGCGCCATCTAC” was 0.239.
“GATGATTGTTCTCCCAGCTGATGAATTGAATCTGTCGAGTAAACAAATTTTCCTAATCTTTCTGTTCAAGCGCCATCTAC”: the binding signal (RPM ratio (pull-down/input)) is 0.323.
With “GATGATTGTTCTCCCAGCTGATGAATTCGCCTAATCGAGTAAACAAATTTTCCTAATCTTTCTGTTCAAGCGCCATCTAC” the figure was 0.346; with “GATGATTGTTCTCCCAGCTGATGAATTCGTACGATCGAGTAAACAAATTTTCCTAATCTTTCTGTTCAAGCGCCATCTAC”, 0.333; with “GATGATTGTTCTCCCAGCTGATGAATTCACCCTGTCGAGTAAACAAATTTTCCTAATCTTTCTGTTCAAGCGCCATCTAC”, 0.257.
